Results from PubChem BioAssay AID504832 (National Center for Advancing Translational Sciences (NCATS), 2011).
The whole screen tested about 310,000 compounds, of which about 18,000 (5.8%) were called active. This list was built around the results that the source calls inconclusive (neither active nor inactive); the mix of calls is not that of the screen. Calls follow the shape of the dose curve; as a rule, active = well fitted inhibition curve with a large enough effect; inconclusive = small, poorly fitted or top-dose-only effect, or another doubt; inactive = no such curve, though single readings can be large or run the other way. No potency is given beside an inconclusive call; the fits are too rough.

assay: Primary qHTS for delayed death inhibitors of the malarial parasite plastid, 48 hour incubation; conditions: P. falciparum luciferase growth in erythrocytes; series mostly up to 28.7 µM
How it was run: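 Erythrocytes infected with P. falciparum carrying an integrated firefly luciferase reporter (2% hematocrit, 0.1% parasitemia final) were exposed to compounds in RPMI 1640 with 0.5% Albumax at 37 C, 5% CO2. Growth inhibition was scored as reduced luminescence.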
% is scaled to controls: 0 for no effect and ±100 for the full control effect; potency is read from the fitted curve at half-maximal effect; tags tell the direction and shape of the fitted curve.

Compound | Potency | activity change, negative = inhibition
Cc1ccc(-n2c(C)cc(-c3csc(N)n3)c2C)cc1 | inconclusive [inhibitor, partial curve, poor fit] | 
O=C(NC(=O)c1c(F)cccc1F)Nc1cc(Cl)c(OC(F)(F)C(F)C(F)(F)F)cc1Cl (centres undefined) | inconclusive [inhibitor, single point] | 
CC(=O)Nc1ccc(NC(=O)C2CCN(c3ccc(C(F)(F)F)cn3)CC2)cc1 | inactive | 
CCOc1ccc(N(C)C(=O)CCc2nnc3ccc(N4CCCC4)nn23)cc1 | inconclusive [inhibitor, single point] | 
Cn1nc(C(=O)N2CCCc3ccccc32)c2ccccc2c1=O | inactive | 
CC(=O)NC(C)CCc1ccccc1 (centres undefined) | inactive | 
O=C1CC(C(=O)N(CC2CCCO2)C(C(=O)NC2CCCCC2)c2ccncc2)CS1 (centres undefined) | inactive | 
Cc1oc(-c2ccccc2F)nc1CN1CCC(C(=O)NCc2cccnc2)CC1 | inconclusive [inhibitor, partial curve, poor fit] | 
O=C(N/N=C/c1c[nH]c2ccccc12)c1ccn(Cc2ccc(Cl)cc2Cl)n1 | inconclusive [inhibitor, single point] | 
CCCc1nc2ccccc2c(=O)n1-c1ccccc1OC | inconclusive [inhibitor, partial curve, poor fit] | 
Cc1cc(/C=C2\SC(=Nc3ccc(N4CCOCC4)cc3)N(C)C2=O)c(C)n1-c1cccnc1 | inconclusive [inhibitor, single point] | 
Cc1ccc2cccc(Oc3ncnc4scc(-c5ccccc5)c34)c2n1 | active: 10.4 µM | 
COc1ccc(-c2nc(C)ncc2-c2ccccc2)c(O)c1 | inconclusive [inhibitor, single point] | 
COc1ccc(C(O)P(=O)(Oc2ccccc2)Oc2ccccc2)cc1 (centres undefined) | inconclusive [inhibitor, partial curve, poor fit] | 
O=C(CSCc1ccc(Br)cc1)NC1CC1 | inconclusive [inhibitor, single point] | 
O=C(/C=C/c1cccc([N+](=O)[O-])c1)Nc1cccc(NC(=O)c2ccco2)c1 | inactive | 
CCOC(=O)N1CCN(C(=O)c2ccc3c(=O)n(-c4ccccc4F)c(=S)[nH]c3c2)CC1 | inconclusive [inhibitor, partial curve, poor fit] | 
COc1ccc(CCNc2nc(-c3cccnc3)nc3ccccc23)cc1OC | active: 14.7 µM | 
CCn1c(=NC(=O)C2COc3ccccc3O2)sc2c(C)ccc(OC)c21 (centres undefined) | inconclusive [inhibitor, partial curve, poor fit] | 
COc1ccccc1N1CCN(C(=O)CCC(=O)Nc2nnc(CC(C)C)s2)CC1 | inactive | 
CC(O)CNc1nc2sc3c(c2c(=O)n1CCc1ccccc1)CCCCC3 (centres undefined) | active: 11.7 µM | 
Cn1c(NN)nc2sc3c(c2c1=O)CC(C)(C)OC3 | inconclusive [inhibitor, single point] | 
O=C(CCc1nc(-c2cccs2)no1)Nc1cnc2ccccc2c1 | inconclusive [inhibitor, partial curve, poor fit] | 

Compound | Potency | activity change, negative = inhibition
CN(c1ccc(-c2csc(NC(=O)C3CC(=O)N(Cc4ccco4)C3)n2)cc1)S(C)(=O)=O (centres undefined) | inconclusive [inhibitor, single point] | 
Clc1cccc(Cl)c1Cn1c(-c2cccnc2Cl)nc2ccccc21 | inconclusive [inhibitor, single point] | 
CC(C)(C)C(=O)NC(=S)Nc1ccc(F)cc1 | inactive | 
COc1ccc(C(=O)N(C)Cc2ccccc2F)cc1S(=O)(=O)N1CCCC1 | inconclusive [inhibitor, single point] | 
COc1ccc(C2=NN(C(=O)CSc3nc4ccccc4s3)C(c3ccc(OC)cc3)C2)cc1 (centres undefined) | active: 11.7 µM | 
CC1CCN(CCc2nc3cc(NS(=O)(=O)c4ccc(F)cc4)ccc3n2C)CC1 | inconclusive [inhibitor, single point] | 
COCCCNS(=O)(=O)c1ccc2c3c(cccc13)C(=O)S2 | inconclusive [inhibitor, single point] | 
S=C1NC(C23CC4CC(CC(C4)C2)C3)=CC(c2ccc3c(c2)OCO3)N1 (centres undefined) | active: 4.15 µM | 
O=C(N/N=C/c1cccc2ccccc12)c1ccncc1 | inactive | 
Cc1ccc(NC(=O)CC2SC3=NCCCN3C2=O)c(C)c1 (centres undefined) | inconclusive [inhibitor, single point] | 
CCOC(=O)N1CCN(C(=O)CN(c2ccc(OCc3ccccc3)cc2)S(C)(=O)=O)CC1 | inconclusive [inhibitor, single point] | 
COc1cc(C)c(CNCCc2c[nH]c3ccccc23)cc1C | inconclusive [inhibitor, single point] | 
CN(C)c1ccc(N/C=C/C(=O)C(F)(F)F)cc1 | active: 9.28 µM | 
Cc1ccc(S(=O)(=O)N2CCCCC2)cc1NC(=O)Cc1c[nH]c2ccccc12 | inconclusive [inhibitor, partial curve, poor fit] | 
C#CCOCCOCCOCCNc1nc(N2CCN(C(=O)Cn3cc(CCCCN)nn3)CC2)nc(N2CCN(C(=O)[C@H](CCCCN)n3cc(CCCC)nn3)CC2)n1 | inconclusive [inhibitor, single point] | 
CCC(c1nnnn1Cc1ccccc1)N(Cc1cc2cc(OC)ccc2[nH]c1=O)CC1CCCO1 (centres undefined) | active: 5.86 µM | 
CC(OC(=O)CCN=C1NS(=O)(=O)c2ccccc21)C(=O)Nc1ccc(F)cc1 (centres undefined) | inactive | 
CCC(=O)N1CCc2cc(S(=O)(=O)CCC(=O)N3CCN(c4ccccc4)CC3)ccc21 | inconclusive [inhibitor, partial curve, poor fit] | 
CN(C)C1=NCCN1CCCC1CCCCC1 | inconclusive [inhibitor, single point] | 
C#Cc1ccc([C@@H]2C=C(C(=O)N3CCN(Cc4ccccc4)CC3)O[C@H](OCC)[C@H]2CCCO)cc1 | inconclusive [inhibitor, full curve] | 
O=C(Cn1nc(-c2ccccc2)oc1=O)OCC(=O)c1ccc(F)c(F)c1 | inconclusive [inhibitor, single point] | 
NS(=O)(=O)c1ccc(CNC(=O)/C=C/c2ccco2)cc1 | inactive | 
CCCCOC(=O)c1ccc(NC(=O)CN2C(=O)NC3(CCCCCC3)C2=O)cc1 | inconclusive [inhibitor, single point] | 

Compound | Potency | activity change, negative = inhibition
COc1cc(C)ccc1OCCOc1cc(C)ccc1Cl | inactive | 
COc1ccc(OCC(=O)Nc2ccc3c(c2)nc(CCN2CCOCC2)n3C)cc1 | inconclusive [inhibitor, single point] | 
OCCC1CN(Cc2cccn2-c2ncccn2)CCN1Cc1ccc(F)cc1 (centres undefined) | inconclusive [inhibitor, partial curve, poor fit] | 
Cc1cccc(NC(=S)NCC2CCCO2)c1 (centres undefined) | inactive | 
CCN(CC)S(=O)(=O)c1ccc(NC(=O)[C@@H](NC(=O)c2cc(OC)cc(OC)c2)C(C)C)cc1 | inconclusive [inhibitor, single point] | 
O=C(c1ccc(N2CCC3(CC2)OCCO3)c([N+](=O)[O-])c1)N1CCOCC1 | inactive | 
Cc1cc(Nc2ccc(Cl)cc2)nc(N)n1 | inconclusive [inhibitor, single point] | 
CCc1nn(C)c(N)c1C | inactive | 
Cc1ccc(S(=O)(=O)Nc2ccc(C(=O)NCCCN3CCOCC3)cc2)cc1[N+](=O)[O-] | inactive | 
COc1cccc(NC(=S)N/N=C2\CC3CCC2(C)C3(C)C)c1 (centres undefined) | active: 10.4 µM | 
COc1ccc(Nc2c(C)cccc2C)cc1 | inactive | 
CCOc1ccccc1-n1c(SCC(=O)N2CCCC2)nnc1-c1ccc(O)cc1 | inconclusive [inhibitor, single point] | 
Cc1ccc(NC(=O)CCNC(=O)c2ccccc2Cl)cc1S(=O)(=O)N1CCCCCC1 | inconclusive [inhibitor, single point] | 
C=CCc1cccc(CNc2ccc(Br)cc2)c1O | active: 11.7 µM | 
COCCn1c(C)cc(C(=O)CSc2nc3ccccc3c(=O)n2C(C)COC)c1C (centres undefined) | inconclusive [inhibitor, partial curve] | 
CN(Cc1ccccc1F)C(=O)CN1CCN(S(=O)(=O)c2ccc3c(c2)OCCCO3)CC1 | inconclusive [inhibitor, partial curve] | 
Cc1ccc(Cn2nc(C)cc2C(=O)Nc2ccccc2Cl)cc1 |  | inactive: 1.91% [at 0.00184 µM]
CN(CC(O)COc1ccc(OCC(O)CN(C)C2CCCCC2)cc1)C1CCCCC1 (centres undefined) | inconclusive [inhibitor, single point] | 
CC(C(=O)N1CCc2ccccc21)N1CCN(S(=O)(=O)c2cccs2)CC1 (centres undefined) | inconclusive [inhibitor, single point] | 
Cc1c(Cl)cccc1NC(=S)NCC(C)C | inconclusive [inhibitor, partial curve, poor fit] | 
O=C(Nc1cccc(NC(=O)C2CCCO2)c1)c1ccco1 (centres undefined) | inactive | 
CC(C)(C)c1ccc(OCCCC(=O)NNC(=O)c2ccccc2O)cc1 | inconclusive [inhibitor, single point] | 
COc1ccc(C)cc1NC(=O)C(Sc1nnc(-c2ccncc2)n1-c1ccc(Cl)cc1)c1ccccc1 (centres undefined) | inconclusive [inhibitor, single point] | 
